The supplement of paper PMC10369915
Some of the results follow. Cut-off read from the data, not from the text of the source: active = 3.2 or more and inactive = the rest. Most of these values are background signal.

Columns and labels:
Assay in all cases: enrichment score (SH2-bound / input frequency) (ratio); bacterial display of known human phosphotyrosine sites (pTyr-Var adds point mutants) read by sequencing; higher = stronger binding; tyrosines were phosphorylated by kinases first
Settings in all cases: peptide library: Human pTyr
SHP2 C-SH2 domain E139D = target: SHP2 C-SH2 domain E139D
[1] = target: SHP2 C-SH2 domain wild-type
SHP2 N-SH2 domain L43F = target: SHP2 N-SH2 domain L43F
SHP2 N-SH2 domain T42A = target: SHP2 N-SH2 domain T42A
SHP2 N-SH2 domain T52S = target: SHP2 N-SH2 domain T52S
[2] = target: SHP2 N-SH2 domain wild-type

Measured: enrichment score
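Note: displayed peptides selected on beads carrying the immobilized SH2 domain, with library peptides lacking any tyrosine serving as negative controls.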

ATTQLDDYLGGSPVQ [AVIL_HUMAN_85_YA]
inactive: SHP2 C-SH2 domain E139D 0.572 | [1] 0.41 | SHP2 N-SH2 domain L43F 0.583 | SHP2 N-SH2 domain T42A 0.493 | SHP2 N-SH2 domain T52S 0.515 | [2] 0.439

APAEDSTYDEAENDL [SRC8_HUMAN_486_YA]
inactive: SHP2 C-SH2 domain E139D 1.02 | [1] 1.21 | SHP2 N-SH2 domain L43F 1.25 | SHP2 N-SH2 domain T42A 1.63 | SHP2 N-SH2 domain T52S 1.66 | [2] 1.24

EDSTADEYENDLGIT [SRC8_HUMAN_489_YA]
inactive: SHP2 C-SH2 domain E139D 1.21 | [1] 0.861 | SHP2 N-SH2 domain L43F 1.15 | SHP2 N-SH2 domain T42A 0.958 | SHP2 N-SH2 domain T52S 1.23 | [2] 1.36

EGPGGALYARVARRE [SREC2_HUMAN_628]
inactive: SHP2 C-SH2 domain E139D 2.14 | [1] 0.469 | SHP2 N-SH2 domain L43F 0.868 | SHP2 N-SH2 domain T42A 0.585 | SHP2 N-SH2 domain T52S 0.659 | [2] 0.385

AVKRYNDYKLDFRRQ [SRRT_HUMAN_175]
inactive: SHP2 C-SH2 domain E139D 1.73 | [1] 1.66 | SHP2 N-SH2 domain L43F 1.58 | SHP2 N-SH2 domain T42A 1.34 | SHP2 N-SH2 domain T52S 1.41 | [2] 1.72

DQDAQDLYDAGVKRK [AXA2L_HUMAN_199]
inactive: SHP2 C-SH2 domain E139D 0.779 | [1] 0.803 | SHP2 N-SH2 domain L43F 0.725 | SHP2 N-SH2 domain T42A 0.736 | SHP2 N-SH2 domain T52S 0.734 | [2] 0.652

AVKRANDYKLDFRRQ [SRRT_HUMAN_175_YA]
inactive: SHP2 C-SH2 domain E139D 1.07 | [1] 0.967 | SHP2 N-SH2 domain L43F 1.1 | SHP2 N-SH2 domain T42A 1.31 | SHP2 N-SH2 domain T52S 1.1 | [2] 1.43

AREKLALYVAEALLH [SSBP3_HUMAN_23_YA]
inactive: SHP2 C-SH2 domain E139D 1.97 | [1] 1.77 | SHP2 N-SH2 domain L43F 1.78 | SHP2 N-SH2 domain T42A 1.83 | SHP2 N-SH2 domain T52S 1.82 | [2] 2.27

MNPSYDEYADSDEDQ [SSRP1_HUMAN_441]
inactive: SHP2 C-SH2 domain E139D 1.08 | [1] 1.04 | SHP2 N-SH2 domain L43F 1.11 | SHP2 N-SH2 domain T42A 1.01 | SHP2 N-SH2 domain T52S 1.08 | [2] 1.41

KDEVFSKYYTPVLAK [STA5A_HUMAN_682]
inactive: SHP2 C-SH2 domain E139D 1.52 | [1] 3.13 | SHP2 N-SH2 domain L43F 0.877 | SHP2 N-SH2 domain T42A 1.64 | SHP2 N-SH2 domain T52S 0.788 | [2] 1.1

TAKAVDGYVKPQIKQ [STA5B_HUMAN_699]
inactive: SHP2 C-SH2 domain E139D 0.969 | [1] 0.852 | SHP2 N-SH2 domain L43F 0.856 | SHP2 N-SH2 domain T42A 0.896 | SHP2 N-SH2 domain T52S 0.854 | [2] 0.89

STTLSTLYPSTSSLL [STAM1_HUMAN_198]
inactive: SHP2 C-SH2 domain E139D 0.477 | [1] 0.438 | SHP2 N-SH2 domain L43F 0.535 | SHP2 N-SH2 domain T42A 0.446 | SHP2 N-SH2 domain T52S 0.452 | [2] 0.389

VMEALSLYTKLMNED [STAM1_HUMAN_371]
inactive: SHP2 C-SH2 domain E139D 1.13 | [1] 1.42 | SHP2 N-SH2 domain L43F 1.04 | SHP2 N-SH2 domain T42A 1.06 | SHP2 N-SH2 domain T52S 1.09 | [2] 1.12

EDPMYSMYAKLQNQP [STAM1_HUMAN_384]
inactive: SHP2 C-SH2 domain E139D 1.08 | [1] 2.33 | SHP2 N-SH2 domain L43F 0.729 | SHP2 N-SH2 domain T42A 0.715 | SHP2 N-SH2 domain T52S 0.626 | [2] 0.682

KSEPEPVYIDEDKMD [STAM2_HUMAN_291]
inactive: SHP2 C-SH2 domain E139D 1.15 | [1] 1.28 | SHP2 N-SH2 domain L43F 1.31 | SHP2 N-SH2 domain T42A 0.932 | SHP2 N-SH2 domain T52S 1.18 | [2] 1.05

EAPVYSVYSKLHPPA [STAM2_HUMAN_374]
inactive: SHP2 C-SH2 domain E139D 0.742 | [1] 1.44 | SHP2 N-SH2 domain L43F 0.782 | SHP2 N-SH2 domain T42A 0.618 | SHP2 N-SH2 domain T52S 0.662 | [2] 0.763

EKEPTEDYVDVLNPM [STAP1_HUMAN_168]
inactive: SHP2 C-SH2 domain E139D 1.02 | [1] 0.924 | SHP2 N-SH2 domain L43F 0.951 | SHP2 N-SH2 domain T42A 1.29 | SHP2 N-SH2 domain T52S 0.991 | [2] 1.14

TEATATDYHTTSHPG [B3AT_HUMAN_46]
inactive: SHP2 C-SH2 domain E139D 0.574 | [1] 0.505 | SHP2 N-SH2 domain L43F 0.887 | SHP2 N-SH2 domain T42A 0.518 | SHP2 N-SH2 domain T52S 0.737 | [2] 0.602

GVLPSHYYESFLEKK [STAP2_HUMAN_22]
inactive: SHP2 C-SH2 domain E139D 0.718 | [1] 0.879 | SHP2 N-SH2 domain L43F 0.785 | SHP2 N-SH2 domain T42A 0.632 | SHP2 N-SH2 domain T52S 0.746 | [2] 0.667

TERGDKGYVPSVFIP [STAT4_HUMAN_693]
inactive: SHP2 C-SH2 domain E139D 0.603 | [1] 0.708 | SHP2 N-SH2 domain L43F 0.628 | SHP2 N-SH2 domain T42A 0.61 | SHP2 N-SH2 domain T52S 0.477 | [2] 0.68

AQRCTISYRAPELFS [STK16_HUMAN_198]
inactive: SHP2 C-SH2 domain E139D 1.14 | [1] 0.977 | SHP2 N-SH2 domain L43F 1.29 | SHP2 N-SH2 domain T42A 1.02 | SHP2 N-SH2 domain T52S 1.4 | [2] 1.3

YGVEDPEYAVTQLAQ [STML2_HUMAN_124]
inactive: SHP2 C-SH2 domain E139D 0.691 | [1] 0.449 | SHP2 N-SH2 domain L43F 0.654 | SHP2 N-SH2 domain T42A 0.54 | SHP2 N-SH2 domain T52S 0.616 | [2] 0.618

SQSLTQIYALPEIPQ [STX17_HUMAN_157]
inactive: SHP2 C-SH2 domain E139D 0.759 | [1] 0.555 | SHP2 N-SH2 domain L43F 2.23 | SHP2 N-SH2 domain T42A 0.546 | SHP2 N-SH2 domain T52S 0.755 | [2] 0.638

KEKTGKEYIPGQPPL [SYEP_HUMAN_872]
inactive: SHP2 C-SH2 domain E139D 1.11 | [1] 1.43 | SHP2 N-SH2 domain L43F 1.13 | SHP2 N-SH2 domain T42A 0.963 | SHP2 N-SH2 domain T52S 1.45 | [2] 1.44

TQAVHSPYDRPGWNP [SYGP1_HUMAN_39_YA]
inactive: SHP2 C-SH2 domain E139D 0.81 | [1] 0.544 | SHP2 N-SH2 domain L43F 0.561 | SHP2 N-SH2 domain T42A 0.665 | SHP2 N-SH2 domain T52S 0.652 | [2] 0.63

DFPAPPPYSAVTPPP [SYNP2_HUMAN_622]
inactive: SHP2 C-SH2 domain E139D 0.474 | [1] 0.516 | SHP2 N-SH2 domain L43F 0.454 | SHP2 N-SH2 domain T42A 0.526 | SHP2 N-SH2 domain T52S 0.561 | [2] 0.49

KTLVMAVYDFDRFSK [SYT1_HUMAN_230]
inactive: SHP2 C-SH2 domain E139D 2.12 | [1] 2.26 | SHP2 N-SH2 domain L43F 2.38 | SHP2 N-SH2 domain T42A 2.37 | SHP2 N-SH2 domain T52S 2.44 | [2] 3.02

ADDLNAQYERRRQEE [BBC3_HUMAN_152]
inactive: SHP2 C-SH2 domain E139D 0.734 | [1] 0.658 | SHP2 N-SH2 domain L43F 0.838 | SHP2 N-SH2 domain T42A 0.882 | SHP2 N-SH2 domain T52S 0.757 | [2] 0.893

MEDHAGTYGLGDRKD [TAU_HUMAN_18]
inactive: SHP2 C-SH2 domain E139D 0.628 | [1] 0.546 | SHP2 N-SH2 domain L43F 0.635 | SHP2 N-SH2 domain T42A 0.637 | SHP2 N-SH2 domain T52S 0.517 | [2] 0.733

MAALEKDYEEVGIDS [TBA4A_HUMAN_432]
inactive: SHP2 C-SH2 domain E139D 1.18 | [1] 1.05 | SHP2 N-SH2 domain L43F 1.07 | SHP2 N-SH2 domain T42A 1.03 | SHP2 N-SH2 domain T52S 0.959 | [2] 1.22

SMPGNRLYVHPDSPN [TBX21_HUMAN_220]
inactive: SHP2 C-SH2 domain E139D 0.638 | [1] 0.502 | SHP2 N-SH2 domain L43F 0.547 | SHP2 N-SH2 domain T42A 0.592 | SHP2 N-SH2 domain T52S 0.553 | [2] 0.515

CETVISYYTDMEEIG [BCAP_HUMAN_263]
inactive: SHP2 C-SH2 domain E139D 1.49 | [1] 1.41 | SHP2 N-SH2 domain L43F 1.34 | SHP2 N-SH2 domain T42A 1.48 | SHP2 N-SH2 domain T52S 1.85 | [2] 1.7

DKYGNEGYIPSNYVT [TEC_HUMAN_228]
inactive: SHP2 C-SH2 domain E139D 0.679 | [1] 0.515 | SHP2 N-SH2 domain L43F 0.752 | SHP2 N-SH2 domain T42A 0.498 | SHP2 N-SH2 domain T52S 0.527 | [2] 0.444

GPLDGSLYAKVKKKD [TENS1_HUMAN_366]
inactive: SHP2 C-SH2 domain E139D 0.729 | [1] 0.849 | SHP2 N-SH2 domain L43F 0.633 | SHP2 N-SH2 domain T42A 0.762 | SHP2 N-SH2 domain T52S 0.772 | [2] 0.984

EGQMYQQYQQQAGYG [TFG_HUMAN_247]
inactive: SHP2 C-SH2 domain E139D 0.568 | [1] 0.516 | SHP2 N-SH2 domain L43F 0.554 | SHP2 N-SH2 domain T42A 0.437 | SHP2 N-SH2 domain T52S 0.507 | [2] 0.85

IHNEDITYDELVLMM [TFG_HUMAN_33]
inactive: SHP2 C-SH2 domain E139D 1.39 | [1] 1.18 | SHP2 N-SH2 domain L43F 1.36 | SHP2 N-SH2 domain T42A 1.46 | SHP2 N-SH2 domain T52S 1.49 | [2] 1.39
